Test results: the supplement of paper PMC8728848
The other results are listed elsewhere or left out.

How the values were obtained:
Experiment in all cases: glycan array binding signal (z-score within array); higher = stronger binding
Details in all cases: glycan notation: IUPAC condensed, linker removed; mutation: R74S
[1] = target: GlcNAc(b1-3)Gal(b1-4)GlcNAc(b1-3)Gal(b1-4)GlcNAc(b1-3)Gal(b1-4)GlcNAc(b1-3)Gal(b1-4)GlcNAc(b1-2)[GlcNAc(b1-3)Gal(b1-4)GlcNAc(b1-3)Gal(b1-4)GlcNAc(b1-3)Gal(b1-4)GlcNAc(b1-3)Gal(b1-4)GlcNAc(b1-6)]Man(a1-6)[GlcNAc(b1-3)Gal(b1-4)GlcNAc(b1-3)Gal(b1-4)GlcNAc(b1-3)Gal(b1-4)GlcNAc(b1-3)Gal(b1-4)GlcNAc(b1-2)Man(a1-3)]Man(b1-4)GlcNAc(b1-4)[Fuc(a1-6)]GlcNAc
How it was run: (§1)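 The binding signal is a Z-score computed within each array. Data were drawn from 3228 arrays in the Consortium for Functional Glycomics database, restricted to those with a known protein sequence. Scores were averaged over arrays of the same protein sequence at different concentrations or buffers, and over linkers, and negative values can be taken as non-binding.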

[2] = target: GlcNAc(b1-3)Gal(b1-4)GlcNAc(b1-3)Gal(b1-4)GlcNAc(b1-3)GalNAc
How it was run: as §1

[3] = target: GlcNAc(b1-3)Gal(b1-4)GlcNAc(b1-3)GalNAc
How it was run: as §1

[4] = target: GlcNAc(b1-3)Gal(b1-4)GlcNAc(b1-3)[GlcNAc(b1-3)Gal(b1-4)GlcNAc(b1-3)]GalNAc
How it was run: as §1

[5] = target: GlcNAc(b1-3)Gal(b1-4)GlcNAc(b1-6)[Gal(b1-3)]GalNAc
How it was run: as §1

[6] = target: GlcNAc(b1-3)Gal(b1-4)GlcNAc(b1-6)[GlcNAc(b1-3)Gal(b1-3)]GalNAc
How it was run: as §1

[7] = target: GlcNAc(b1-3)Gal(b1-4)GlcNAc(b1-6)[GlcNAc(b1-3)]Gal(b1-4)GlcNAc
How it was run: as §1

GlcNAc(b1-3)GalNAc = target: GlcNAc(b1-3)GalNAc
How it was run: as §1

GlcNAc(b1-3)Man = target: GlcNAc(b1-3)Man
How it was run: as §1

[8] = target: GlcNAc(b1-3)[GlcNAc(b1-4)][GlcNAc(b1-6)]GlcNAc
How it was run: as §1

[9] = target: GlcNAc(b1-3)[GlcNAc(b1-6)]Gal(b1-4)GlcNAc
How it was run: as §1

[10] = target: GlcNAc(b1-3)[GlcNAc(b1-6)]GalNAc
How it was run: as §1

[11] = target: GlcNAc(b1-4)Gal(b1-4)GlcNAc
How it was run: as §1

GlcNAc(b1-4)GlcNAc = target: GlcNAc(b1-4)GlcNAc
How it was run: as §1

[12] = target: GlcNAc(b1-4)GlcNAc(b1-4)GlcNAc
How it was run: as §1

[13] = target: GlcNAc(b1-4)GlcNAc(b1-4)GlcNAc(b1-4)GlcNAc(b1-4)GlcNAc
How it was run: as §1

[14] = target: GlcNAc(b1-4)GlcNAc(b1-4)GlcNAc(b1-4)GlcNAc(b1-4)GlcNAc(b1-4)GlcNAc
How it was run: as §1

[15] = target: GlcNAc(b1-4)[GlcNAc(b1-6)]GalNAc
How it was run: as §1

[16] = target: GlcNAc(b1-6)Gal(b1-4)GlcNAc
How it was run: as §1

GlcNAc(b1-6)GalNAc = target: GlcNAc(b1-6)GalNAc
How it was run: as §1

[17] = target: GlcNAc6S(b1-3)Gal(b1-4)GlcNAc
How it was run: as §1

Kdn(a2-3)Gal(b1-3)GalNAc = target: Kdn(a2-3)Gal(b1-3)GalNAc
How it was run: as §1

Kdn(a2-3)Gal(b1-3)GlcNAc = target: Kdn(a2-3)Gal(b1-3)GlcNAc
How it was run: as §1

Kdn(a2-3)Gal(b1-4)Glc = target: Kdn(a2-3)Gal(b1-4)Glc
How it was run: as §1

Kdn(a2-3)Gal(b1-4)GlcNAc = target: Kdn(a2-3)Gal(b1-4)GlcNAc
How it was run: as §1

[18] = target: Kdn(a2-3)Gal(b1-4)[Fuc(a1-3)]GlcNAc
How it was run: as §1

Kdn(a2-6)Gal(b1-4)GlcNAc = target: Kdn(a2-6)Gal(b1-4)GlcNAc
How it was run: as §1

[19] = target: Man(a1-2)Man(a1-2)Man(a1-3)Man
How it was run: as §1

[20] = target: Man(a1-2)Man(a1-2)Man(a1-6)[Man(a1-3)]Man
How it was run: as §1

Man(a1-2)Man(a1-3)Man = target: Man(a1-2)Man(a1-3)Man
How it was run: as §1

[21] = target: Man(a1-2)Man(a1-3)[Man(a1-2)Man(a1-6)]Man
How it was run: as §1

[22] = target: Man(a1-2)Man(a1-3)[Man(a1-2)Man(a1-6)]Man(a1-6)[Man(a1-2)Man(a1-2)Man(a1-3)]Man
How it was run: as §1

[23] = target: Man(a1-2)Man(a1-3)[Man(a1-2)Man(a1-6)]Man(a1-6)[Man(a1-2)Man(a1-2)Man(a1-3)]Man(b1-4)GlcNAc(b1-4)GlcNAc
How it was run: as §1

[24] = target: Man(a1-2)Man(a1-3)[Man(a1-6)]Man(a1-6)[Man(a1-2)Man(a1-3)]Man(b1-4)GlcNAc(b1-4)GlcNAc
How it was run: as §1

[25] = target: Man(a1-2)Man(a1-6)[Man(a1-3)]Man(a1-6)[Man(a1-2)Man(a1-2)Man(a1-3)]Man
How it was run: as §1

[26] = target: Man(a1-2)Man(a1-6)[Man(a1-3)]Man(a1-6)[Man(a1-2)Man(a1-2)Man(a1-3)]Man(b1-4)GlcNAc(b1-4)GlcNAc
How it was run: as §1

Man(a1-3)[Man(a1-6)]Man = target: Man(a1-3)[Man(a1-6)]Man
How it was run: as §1

[27] = target: Man(a1-3)[Man(a1-6)]Man(a1-6)[Man(a1-2)Man(a1-3)]Man(b1-4)GlcNAc(b1-4)GlcNAc
How it was run: as §1

[28] = target: Man(a1-3)[Man(a1-6)]Man(a1-6)[Man(a1-3)]Man
How it was run: as §1

[29] = target: Man(a1-3)[Man(a1-6)]Man(a1-6)[Man(a1-3)]Man(b1-4)GlcNAc(b1-4)GlcNAc
How it was run: as §1

[30] = target: Man(a1-3)[Man(a1-6)]Man(b1-4)GlcNAc(b1-4)GlcNAc
How it was run: as §1

[31] = target: Man(a1-3)[Man(a1-6)]Man(b1-4)GlcNAc(b1-4)[Fuc(a1-6)]GlcNAc
How it was run: as §1

Man(a1-6)Man = target: Man(a1-6)Man
How it was run: as §1

Man(b1-4)GlcNAc = target: Man(b1-4)GlcNAc
How it was run: as §1

MurNAc(b1-4)GlcNAc = target: MurNAc(b1-4)GlcNAc
How it was run: as §1

B1: Gal 7 (Homo sapiens) (protein)
chain: MSNVPHKSSLPEGIRPGTVLRIRGLVPPNASRFHVNLLCGEEGGSDAALHFNPRLDTSEVVFNSKEGGSWGREESGPGVPFGRGQPFEVLIIASDDGFKAVVGDAQYHHFRHRLPLARVRLVEVGGDVQLDSVRIF
- glycan array binding signal (z-score) [1]: 1.16
- glycan array binding signal (z-score) [2]: -0.456
- glycan array binding signal (z-score) [3]: -0.547
- glycan array binding signal (z-score) [4]: -0.2
- glycan array binding signal (z-score) [5]: -0.173
- glycan array binding signal (z-score) [6]: -0.377
- glycan array binding signal (z-score) [7]: -0.652
- glycan array binding signal (z-score) (GlcNAc(b1-3)GalNAc): -0.436
- glycan array binding signal (z-score) (GlcNAc(b1-3)Man): -0.595
- glycan array binding signal (z-score) [8]: -0.573
- glycan array binding signal (z-score) [9]: -0.632
- glycan array binding signal (z-score) [10]: -0.503
- glycan array binding signal (z-score) [11]: -0.365
- glycan array binding signal (z-score) (GlcNAc(b1-4)GlcNAc): -0.382
- glycan array binding signal (z-score) [12]: -0.549
- glycan array binding signal (z-score) [13]: -0.329
- glycan array binding signal (z-score) [14]: -0.548
- glycan array binding signal (z-score) [15]: -0.742
- glycan array binding signal (z-score) [16]: -0.595
- glycan array binding signal (z-score) (GlcNAc(b1-6)GalNAc): -0.571
- glycan array binding signal (z-score) [17]: -0.296
- glycan array binding signal (z-score) (Kdn(a2-3)Gal(b1-3)GalNAc): -0.42
- glycan array binding signal (z-score) (Kdn(a2-3)Gal(b1-3)GlcNAc): -0.611
- glycan array binding signal (z-score) (Kdn(a2-3)Gal(b1-4)Glc): -0.078
- glycan array binding signal (z-score) (Kdn(a2-3)Gal(b1-4)GlcNAc): -0.408
- glycan array binding signal (z-score) [18]: -0.427
- glycan array binding signal (z-score) (Kdn(a2-6)Gal(b1-4)GlcNAc): -0.539
- glycan array binding signal (z-score) [19]: -0.266
- glycan array binding signal (z-score) [20]: -0.342
- glycan array binding signal (z-score) (Man(a1-2)Man(a1-3)Man): -0.339
- glycan array binding signal (z-score) [21]: -0.499
- glycan array binding signal (z-score) [22]: -0.486
- glycan array binding signal (z-score) [23]: -0.459
- glycan array binding signal (z-score) [24]: 0.255
- glycan array binding signal (z-score) [25]: -0.26
- glycan array binding signal (z-score) [26]: -0.537
- glycan array binding signal (z-score) (Man(a1-3)[Man(a1-6)]Man): -0.223
- glycan array binding signal (z-score) [27]: -0.14
- glycan array binding signal (z-score) [28]: 1.78
- glycan array binding signal (z-score) [29]: -0.487
- glycan array binding signal (z-score) [30]: -0.307
- glycan array binding signal (z-score) [31]: -0.238
- glycan array binding signal (z-score) (Man(a1-6)Man): 0.827
- glycan array binding signal (z-score) (Man(b1-4)GlcNAc): 0.24
- glycan array binding signal (z-score) (MurNAc(b1-4)GlcNAc): -0.539
